Values joined by “and” are separate entries in the source; they are usually repeats but may differ in a detail not shown here. Identical values can stand only once. The shares of active, inactive and inconclusive entries below differ from those in the screen. For some assays here: Potencies of inconclusive entries are doubtful fits and often do not repeat. The source holds several records for some structures; these can differ, active in one and inactive in another. Active and inactive are the calls of the source. Unless noted, the call rests on the fitted dose curve; in most records, active means well fitted curve in the direction sought with a large enough effect in the repeat runs; inconclusive means weak or mixed curves; inactive means no such curve, though single readings can be large; an effect the other way counts as inactive or inconclusive.
Columns and labels:
[1] = qHTS assay for identifying genotoxic compounds that show differential cytotoxicity against isogenic chicken DT40 cell lines with known DNA damage response pathways - Rev3 mutant cell line (AID 743014); conditions: chicken DT40 Rev3-/- viability, CellTiter-Glo, 40 h; activity, negative = cytotoxicity: at 68.4 µM (top of the series) unless noted; further: nearly all actives have a fitted effect of over 55% in size; further: potency means the concentration at half of the fitted maximal effect
[2] = qHTS assay for identifying genotoxic compounds that show differential cytotoxicity against isogenic chicken DT40 cell lines with known DNA damage response pathways - Rad54/Ku70 mutant cell line (AID 743015); conditions: DT40 Rad54/Ku70 mutant viability, CellTiter-Glo, 40 h; activity change, negative = cytotoxicity: at 66.8 µM (top of the series); further: nearly all actives have a fitted effect of over 60% in size; further: potency means the concentration at half of the fitted maximal effect; on activity change, negative = cytotoxicity: on the % scale 0 is the no-effect control and ±100 the full control effect
[3] = qHTS assay to identify small molecule antagonists of the androgen receptor (AR) signaling pathway using the MDA cell line - cell viability counter screen (AID 743041; further: nearly all actives have a fitted effect of over 45% in size; further: potency means the concentration at half of the fitted maximal effect); conditions: MDA-kb2 viability, CellTiter-Fluor, 16 h, cells co-treated with R1881 androgen agonist; viability change, negative = cytotoxic: at 70.3 µM (top of the series) unless noted
Summary of the method: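 Cells were plated at 3,000 per well and left 5 h. Compounds in DMSO were then pinned in, followed by R1881. After 16 h at 37C, CellTiter-Fluor fluorescence gave viability.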

[4] = biological target: Androgen receptor (Homo sapiens) (UniProt P10275); assay: qHTS assay to identify small molecule antagonists of the androgen receptor (AR) signaling pathway (AID 743035; active means well fitted inhibition curve with a large enough effect in the signal ratio in the repeat runs, not every such curve was filed as active; inconclusive means weak or mixed curves, or effect the other way; inactive means no such curve, though single readings can be large or run the other way; the % refers to the signal ratio; further: potency means the concentration at half of the fitted maximal effect); conditions: HEK293 AR-UAS-bla, R1881-stimulated, beta-lactamase FRET, 16 h; activity change, negative = inhibition: at 58.5 µM (top of the series) unless noted
UniProt P10275, sequence (P10275 whole entry, looked up): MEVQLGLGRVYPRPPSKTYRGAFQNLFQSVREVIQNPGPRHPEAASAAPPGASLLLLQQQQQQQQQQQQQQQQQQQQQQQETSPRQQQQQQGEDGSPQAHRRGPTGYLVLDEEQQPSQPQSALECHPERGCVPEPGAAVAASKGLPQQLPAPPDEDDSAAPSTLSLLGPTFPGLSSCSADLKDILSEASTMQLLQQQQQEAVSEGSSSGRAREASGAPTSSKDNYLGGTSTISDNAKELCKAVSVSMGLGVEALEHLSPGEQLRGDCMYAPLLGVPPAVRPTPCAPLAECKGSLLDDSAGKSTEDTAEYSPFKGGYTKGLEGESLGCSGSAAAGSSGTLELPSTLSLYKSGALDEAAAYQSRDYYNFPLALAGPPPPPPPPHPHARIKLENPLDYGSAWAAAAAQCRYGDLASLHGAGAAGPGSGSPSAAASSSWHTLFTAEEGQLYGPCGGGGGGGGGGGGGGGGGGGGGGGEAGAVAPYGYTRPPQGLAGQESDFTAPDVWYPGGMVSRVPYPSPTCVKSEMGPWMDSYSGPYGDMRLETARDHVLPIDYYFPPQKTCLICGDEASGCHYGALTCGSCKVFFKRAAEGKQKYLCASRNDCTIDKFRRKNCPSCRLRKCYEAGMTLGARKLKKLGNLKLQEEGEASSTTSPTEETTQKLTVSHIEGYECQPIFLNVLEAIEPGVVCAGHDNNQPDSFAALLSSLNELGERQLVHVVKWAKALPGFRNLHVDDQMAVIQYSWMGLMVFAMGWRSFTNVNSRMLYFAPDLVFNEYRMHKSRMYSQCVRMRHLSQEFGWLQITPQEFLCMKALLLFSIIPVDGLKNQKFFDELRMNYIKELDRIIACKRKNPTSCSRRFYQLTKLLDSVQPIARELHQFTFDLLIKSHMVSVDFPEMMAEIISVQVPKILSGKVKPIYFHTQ
Summary of the method: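 Fluorescence from a beta-lactamase FRET substrate (LiveBLAzer B/G, 2 h, room temperature) measured inhibition of R1881-stimulated signaling in GeneBLAzer AR-UAS-bla HEK293 cells exposed to compound for 16 h at 37C.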

[5] = biological target: Androgen receptor (Homo sapiens) (UniProt P10275); assay: qHTS assay to identify small molecule agonists of the androgen receptor (AR) signaling pathway (AID 743036; active means well fitted activation curve with a large enough effect in the signal ratio in the repeat runs, with a control signal flat, not every such curve was filed as active; inconclusive means weak or mixed curves, or effect the other way; inactive means no such curve, though single readings can be large or run the other way; the % refers to the signal ratio; further: on the % scale 0 is the no-effect control and ±100 the full control effect); conditions: HEK293 AR-UAS-bla GripTite, beta-lactamase FRET ratio, 16 h; activation: at 62.4 µM (top of the series) unless noted
Summary of the method: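 Fluorescence from a beta-lactamase FRET substrate served as read-out in AR-UAS-bla GripTite HEK293 cells. Cells were treated with DMSO-dissolved compounds for 16 h at 37C, then with LiveBLAzer B/G substrate for 2 h at room temperature.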

[6] = biological target: Androgen receptor (Homo sapiens) (UniProt P10275); assay: qHTS assay to identify small molecule agonists of the androgen receptor (AR) signaling pathway using the MDA cell line (AID 743040; further: on the % scale 0 is the no-effect control and ±100 the full control effect; nearly all actives have a fitted effect of over 20% in size); conditions: MDA-kb2 AR-luc cells, MMTV luciferase, 16 h; activity change: at 70.3 µM (top of the series), stronger effect = higher value unless noted
Summary of the method: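 Cells plated, 5 h at 37C/0% CO2; compound or DMSO pinned; 16 h at 37C; ONE-Glo added; luminescence measured after 30 min at room temperature. Reporter line: MDA-kb2 with MMTV-luciferase responsive to AR and GR.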

[7] = qHTS assay to identify small molecule antagonists of the thyroid receptor (TR) signaling pathway - cell viability counter screen (AID 743064); conditions: GH3.TRE-Luc viability, CellTiter-Fluor, 24 h; activity change, negative = cytotoxic: at 70.3 µM (top of the series) unless noted; further: nearly all actives have a fitted effect of over 50% in size; further: potency means the concentration at half of the fitted maximal effect
Summary of the method: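 Fluorescence from CellTiter-Fluor, added after 23.5 h exposure at 37 °C, reported viability of GH3.TRE-Luc cells co-treated with compound and 1 nM T3. Measured in the same wells as the luciferase TR readout.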

[8] = qHTS assay to identify small molecule antagonists of the androgen receptor (AR) signaling pathway - cell viability counter screen (AID 743033; further: nearly all actives have a fitted effect of over 45% in size; further: potency means the concentration at half of the fitted maximal effect); conditions: AR-bla HEK293 viability, CellTiter-Glo luminescence, 16 h; activity change, negative = cytotoxicity: at 58.5 µM (top of the series)
[9] = test system: thyroid hormone receptor (rat, GH3 cells); assay: qHTS assay to identify small molecule agonists of the thyroid receptor (TR) signaling pathway (AID 743066; calls by dose curve; further: potency means the concentration at half of the fitted maximal effect); conditions: GH3.TRE-Luc cells, TR agonist luciferase, 24 h; activation: at 83.9 µM (top of the series) unless noted
[10] = qHTS assay to identify small molecule antagonists of the estrogen receptor alpha (ER-alpha) signaling pathway using the BG1 cell line - cell viability counter screen (AID 743081);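 further: compound given together with 17beta-estradiol as the ER stimulus; nearly all actives have a fitted effect of over 45% in size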; further: potency means the concentration at half of the fitted maximal effect
[11] = qHTS assay to identify small molecule antagonists of the thyroid receptor (TR) signaling pathway (AID 743065); further: nearly all actives have a fitted effect of over 55% in size; further: potency means the concentration at half of the fitted maximal effect
Summary of the method: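 Antagonism measured as loss of luciferase signal in GH3 cells stably carrying a TRE-luciferase reporter, co-treated with compound and T3 (1 nM final) for 23.5 h at 37 C. Viability was read in the same well by CellTiter-Fluor.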

[12] = biological target: Estrogen receptor (Homo sapiens) (UniProt P03372); assay: qHTS assay to identify small molecule agonists of the estrogen receptor alpha (ER-alpha) signaling pathway using the BG1 cell line (AID 743079); conditions: BG1Luc4E2 cells, ERE-luciferase agonist, 22 h; activation: at 70.3 µM (top of the series) unless noted; further: potency means the concentration at half of the fitted maximal effect; nearly all actives have a fitted effect of over 20% in size
UniProt P03372, sequence (P03372 whole entry, looked up): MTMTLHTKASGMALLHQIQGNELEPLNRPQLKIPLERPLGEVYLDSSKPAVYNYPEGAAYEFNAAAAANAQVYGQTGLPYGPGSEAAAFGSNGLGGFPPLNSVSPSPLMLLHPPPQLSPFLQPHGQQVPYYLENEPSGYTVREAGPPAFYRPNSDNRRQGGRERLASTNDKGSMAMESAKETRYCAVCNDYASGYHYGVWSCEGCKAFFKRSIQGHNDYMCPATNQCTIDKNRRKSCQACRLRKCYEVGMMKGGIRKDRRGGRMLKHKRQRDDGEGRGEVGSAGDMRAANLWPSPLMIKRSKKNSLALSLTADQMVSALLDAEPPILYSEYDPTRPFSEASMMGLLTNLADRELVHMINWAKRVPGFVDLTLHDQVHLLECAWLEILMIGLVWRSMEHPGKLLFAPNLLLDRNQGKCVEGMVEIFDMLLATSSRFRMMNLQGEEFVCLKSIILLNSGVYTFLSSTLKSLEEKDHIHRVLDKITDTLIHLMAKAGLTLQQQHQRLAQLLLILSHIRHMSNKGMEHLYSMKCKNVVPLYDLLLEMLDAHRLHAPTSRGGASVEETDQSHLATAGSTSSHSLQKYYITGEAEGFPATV

Aromatase (Homo sapiens) = Aromatase (Homo sapiens) (UniProt P11511); assay: qHTS assay to identify aromatase inhibitors (AID 743083); further: on the % scale 0 is the no-effect control and ±100 the full control effect; nearly all actives have a fitted effect of over 55% in size
UniProt P11511, sequence (P11511 whole entry, looked up): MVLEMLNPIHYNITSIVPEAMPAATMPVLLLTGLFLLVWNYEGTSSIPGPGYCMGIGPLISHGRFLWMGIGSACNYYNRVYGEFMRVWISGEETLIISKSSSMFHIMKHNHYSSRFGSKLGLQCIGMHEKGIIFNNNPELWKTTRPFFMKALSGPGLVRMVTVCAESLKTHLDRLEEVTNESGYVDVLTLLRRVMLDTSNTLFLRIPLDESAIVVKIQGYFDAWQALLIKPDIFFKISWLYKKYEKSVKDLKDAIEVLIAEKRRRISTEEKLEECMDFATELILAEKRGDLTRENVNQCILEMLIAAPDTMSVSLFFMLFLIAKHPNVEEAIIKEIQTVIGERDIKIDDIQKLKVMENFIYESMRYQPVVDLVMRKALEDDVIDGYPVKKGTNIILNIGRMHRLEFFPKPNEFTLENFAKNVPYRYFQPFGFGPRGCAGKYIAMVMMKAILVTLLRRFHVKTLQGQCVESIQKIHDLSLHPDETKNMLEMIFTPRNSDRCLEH

[13] = qHTS assay to identify aromatase inhibitors - cell viability counter screen (AID 743084); conditions: MCF-7 aro ERE viability, CellTiter-Fluor, 24 h; activity change, negative = cytotoxicity: at 70.3 µM (top of the series);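 further: cells stimulated with testosterone during compound exposure; nearly all actives have a fitted effect of over 55% in size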; further: potency means the concentration at half of the fitted maximal effect
[14] = biological target: Estrogen receptor (Homo sapiens) (UniProt P03372); assay: qHTS assay to identify small molecule agonists of the estrogen receptor alpha (ER-alpha) signaling pathway (AID 743075; calls by dose curve;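 further: HEK293 GripTite cells with ER-alpha and UAS-driven beta-lactamase reporter; on the % scale 0 is the no-effect control and ±100 the full control effect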)
[15] = biological target: Estrogen receptor (Homo sapiens) (UniProt P03372); assay: qHTS assay to identify small molecule antagonists of the estrogen receptor alpha (ER-alpha) signaling pathway (AID 743069; active means well fitted curve in the direction sought with a large enough effect in the signal ratio in the repeat runs, not every such curve was filed as active; inconclusive means weak or mixed curves, or effect the other way; inactive means no such curve, though single readings can be large or run the other way; the % refers to the signal ratio; further: on the % scale 0 is the no-effect control and ±100 the full control effect); conditions: HEK293 ER-alpha-UAS-bla, beta-lactamase ratio, antagonist mode; activity, negative = inhibition: at 69.4 µM (top of the series) unless noted
Summary of the method: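 ER-alpha-UAS-bla GripTite HEK293 line; 2% charcoal-stripped FBS overnight; plated, 4 hr 37C/5% CO2; cpd in DMSO + 17beta-estradiol, 18 hr 37C; LiveBLAzer B/G FRET substrate 2 hr RT; fluorescence intensity.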

[16] = qHTS assay to identify small molecule antagonists of the estrogen receptor alpha (ER-alpha) signaling pathway using the BG1 cell line (AID 743080; calls by dose curve;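 further: BG1 cells stimulated with 17beta-estradiol alongside compound; nearly all actives have a fitted effect of over 25% in size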; further: potency means the concentration at half of the fitted maximal effect); conditions: BG1Luc4E2 ERE-luciferase antagonist mode, luminescence; activity change, negative = inhibition: at 70.3 µM (top of the series) unless noted
Summary of the method: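 Luminescence from a 4×ERE-luciferase reporter in BG1-Luc-4E2 cells served as read-out. Cells, pre-cultured 5 days in stripped-serum phenol-red-free medium, were exposed to compound with 17beta-estradiol co-stimulation for 21.5 h at 37 C.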

[17] = qHTS assay to identify small molecule antagonists of the estrogen receptor alpha (ER-alpha) signaling pathway - cell viability counter screen (AID 743074; calls by dose curve;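 further: HEK293 cells carrying ER-alpha-UAS-bla reporter stimulated with 17beta-estradiol; potency means the concentration at half of the fitted maximal effect; nearly all actives have a fitted effect of over 45% in size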)
Tags describe the fitted curve by direction and shape.

Question: Which results are given for `CC(=O)NCCO`?
Answer: Potency [1]: inconclusive: 1.93 µM [cytotoxic, full curve, poor fit]; Potency [2]: inactive; Potency [3]: inactive

Question: With `CCCCC(CC)COC(=O)/C=C\C(=O)OCC(CC)CCCC` (configuration not stated) as the molecule, how does the Potency [1] read?
Answer: inactive

Question: What about the Potency [2] of the same molecule?
Answer: inconclusive: 27.3 µM [cytotoxic, partial curve, poor fit]

Question: And the Potency [4]?
Answer: inconclusive: 21.9 µM [falling, partial curve, poor fit]

Question: What about the Potency [5] of the same molecule?
Answer: inactive

Question: What about the activity change [6] of the same molecule?
Answer: inconclusive: 1.36% [phenotype inactive]

Question: What about the Potency [7] of the same molecule?
Answer: inconclusive: 2.43 µM [rising, single point]

Question: For `CCOc1ccc(OCC)c(Cl)c1`, which Potency [1] is on record?
Answer: inactive

Question: What about the Potency [2] of the same molecule?
Answer: inactive

Question: And the Potency [7]?
Answer: inactive

Question: Which results are given for `Cc1c(-c2ccc(O)cc2)n(Cc2ccc(OCCN3CCCCCC3)cc2)c2ccc(O)cc12`?
Answer: Potency [1]: active: 13.3 µM; Potency [8]: inconclusive: 16.9 µM [cytotoxic, partial curve, poor fit]; Potency [9]: inconclusive: 21.1 µM [inhibitor, partial curve, poor fit]; Potency [10]: inconclusive: 33.5 µM [cytotoxic, partial curve, poor fit]

Question: Which results are given for `CN(C)c1ccc(O)c2c1C[C@H]1C[C@H]3[C@H](N(C)C)C(=O)C(C(N)=O)=C(O)[C@@]3(O)C(=O)C1=C2O`?
Answer: Potency [1]: inconclusive: 33.5 µM [cytotoxic, single point]; Potency [8]: inactive; viability change, negative = cytotoxic [3]: inconclusive: 3.05%; Potency [7]: inconclusive: 68.6 µM [cytotoxic, partial curve, poor fit]; Potency [11]: inconclusive: 48.6 µM [inhibitor, partial curve]; Potency [9]: inactive; Potency [12]: inconclusive: 26.6 µM [activator]; Potency (Aromatase (Homo sapiens)): inactive; Potency [13]: inconclusive: 33.5 µM [cytotoxic, partial curve, poor fit]

Question: Which Potency [1] does the source give for `CCC(CO)(CO)[N+](=O)[O-]` here?
Answer: inconclusive: 30.6 µM [cytotoxic, partial curve, poor fit]

Question: And the Potency [8]?
Answer: inactive

Question: What about the Potency [7] of the same molecule?
Answer: inactive

Question: What about the Potency [9] of the same molecule?
Answer: inactive

Question: And the Potency [14]?
Answer: inactive

Question: Which Potency [1] does the source give for `COc1ccc(C(=O)c2ccccc2O)c(O)c1` here?
Answer: inactive and inconclusive: 68.4 µM [cytotoxic, single point]

Question: What about the Potency [2] of the same molecule?
Answer: inconclusive: 68.4 µM [cytotoxic, single point]

Question: And the Potency [11]?
Answer: inconclusive: 60.9 µM [inhibitor, partial curve, poor fit]

Question: What about the Potency [9] of the same molecule?
Answer: inactive

Question: Which Potency [1] does the source give for `C/C=C\C/C=C/CCCCCCCCOC(C)=O` here?
Answer: active: 27.3 µM

Question: What about the Potency [8] of the same molecule?
Answer: inconclusive: 43.6 µM [cytotoxic, partial curve]

Question: What about the Potency [7] of the same molecule?
Answer: inconclusive: 54.5 µM [cytotoxic, partial curve]

Question: What about the Potency [15] of the same molecule?
Answer: inactive

Question: What about the Potency [16] of the same molecule?
Answer: inactive

Question: What about the Potency [10] of the same molecule?
Answer: inactive

Question: What about the Potency [13] of the same molecule?
Answer: inconclusive: 68.6 µM [cytotoxic, single point]

Question: Which Potency [1] does the source give for `Cc1cc(C(C)(C)C)cc(C)c1CC1=NCCN1` here?
Answer: inconclusive: 7.17 µM [cytotoxic, partial curve]

Question: What about the Potency [8] of the same molecule?
Answer: inconclusive: 0.002 µM [cytotoxic, full curve, poor fit]

Question: What about the Potency [3] of the same molecule?
Answer: inactive

Question: And the Potency [11]?
Answer: inconclusive: 11.4 µM [inhibitor, partial curve]

Question: What about the Potency [9] of the same molecule?
Answer: inactive

Question: With `CN1CC(=O)N/C1=N/C(=O)Nc1cccc(Cl)c1` as the molecule, how does the Potency [1] read?
Answer: inconclusive: 15 µM [rising, partial curve, poor fit]

Question: What about the Potency [8] of the same molecule?
Answer: inactive

Question: What about the Potency [7] of the same molecule?
Answer: inactive

Question: What about the Potency [12] of the same molecule?
Answer: active: 29.8 µM and active: 5.31 µM

Question: With `CC(=O)OCC(=O)[C@@]1(OC(C)=O)[C@@H](C)C[C@H]2[C@@H]3C[C@H](F)C4=CC(=O)C=C[C@]4(C)[C@@]3(F)[C@@H](O)C[C@@]21C` as the molecule, how does the Potency [1] read?
Answer: active: 11.9 µM

Question: What about the Potency [2] of the same molecule?
Answer: inconclusive: 33.5 µM [cytotoxic, single point]

Question: And the Potency [13]?
Answer: inconclusive: 0.133 µM [cytotoxic, full curve, poor fit]

Question: With `CC(N)C12CC3CC(CC(C3)C1)C2` (configuration not stated) as the molecule, how does the Potency [1] read?
Answer: inconclusive: 29.8 µM [cytotoxic, single point]

Question: What about the Potency [8] of the same molecule?
Answer: inactive

Question: For `Nc1nc(N)nc(-c2cc(Cl)ccc2Cl)n1`, which Potency [1] is on record?
Answer: inactive

Question: What about the Potency [2] of the same molecule?
Answer: inconclusive: 16.8 µM [cytotoxic, single point]

Question: And the Potency [13]?
Answer: inactive

Question: With `O=C(O)c1cccc(C(=O)O)c1C(=O)O` as the molecule, how does the Potency [1] read?
Answer: inactive

Question: What about the Potency [4] of the same molecule?
Answer: inactive

Question: And the Potency [5]?
Answer: inactive

Question: What about the Potency [7] of the same molecule?
Answer: inconclusive: 69.2 µM [rising, single point]

Question: And the Potency [11]?
Answer: inactive

Question: And the Potency [15]?
Answer: inactive

Question: And the Potency [17]?
Answer: inconclusive: 62.2 µM [rising, partial curve, poor fit]

Question: And the Potency [14]?
Answer: inactive

Question: With `CCc1nn(CCCN2CCN(c3cccc(Cl)c3)CC2)c(=O)n1CCOc1ccccc1` as the molecule, how does the Potency [1] read?
Answer: inconclusive: 16.8 µM [cytotoxic, partial curve, poor fit]

Question: And the Potency [8]?
Answer: active: 10.7 µM and inconclusive: 16.9 µM [cytotoxic, partial curve, poor fit]

Question: And the Potency [3]?
Answer: active: 22.1 µM and inconclusive: 33.5 µM [cytotoxic, single point]

Question: What about the Potency [7] of the same molecule?
Answer: active: 10.6 µM and active: 26.6 µM

Question: What about the Potency [9] of the same molecule?
Answer: inconclusive: 23.7 µM [inhibitor, partial curve, poor fit]

Question: And the activation [9]?
Answer: inconclusive: -8.78% [phenotype inactive]

Question: And the Potency [17]?
Answer: active: 23.9 µM and inconclusive: 26.8 µM [cytotoxic]

Question: What about the Potency [12] of the same molecule?
Answer: inconclusive: 8.41 µM [inhibitor, full curve] and inconclusive: 18.8 µM [inhibitor, partial curve]

Question: And the Potency [16]?
Answer: active: 7.5 µM and active: 26.6 µM

Question: And the Potency [10]?
Answer: active: 29.8 µM

Question: What about the Potency [13] of the same molecule?
Answer: inconclusive: 33.5 µM [cytotoxic, single point]
